Results on 167 variants are retold here after the RNAGym collection of RNA variant scans (doi:10.7554/elife.90254).

The source gives no read counts; variants with many changes may rest on few reads.

B1: LINE1-mini (parent)
chain: GGCAGAGCUCAACACAGCGUGGCAAAGUGGCUGUGGCUAGACUGCC

The variants in the series derive from B1. Kind of series: self-cleavage, relative activity (ratio to wild type); higher = more cleavage; in vitro, sequencing; the parent is a self-cleaving ribozyme.
Turning to G7C C15G U34G U43C, the self-cleavage was 0.01.

Consider G7C C8A C23A A25C U34C, for which the self-cleavage was determined as 0.28.

Regarding G7C C15G U20A G22A, the self-cleavage was found to be 0.11.

For the variant G7C C18A U28A, the self-cleavage stood at 0.01.

Take G7C G19A C23U G30U: the self-cleavage was 0.01.

Consider G7C C10U G33A U34A, for which the self-cleavage worked out at 0.06.

For the variant G7C A14U G27U G40U, the self-cleavage amounted to 0.11.

G7C A11G A24C C31A G33U A41G: the self-cleavage was 0.01.

On to G7C C13U C15A G17C C31A, for which the self-cleavage was found to be 0.01.

For G7C C10U C42U, the self-cleavage was 0.06.

As to G7C C18U G36U C46A, the self-cleavage amounted to 0.1.

Take G7C G40U C45A: the self-cleavage was found to be 0.14.

Regarding G7C A12G C23U A24U G29A G36C, the self-cleavage is 0.09.

As for G7C A16U G44C, the self-cleavage was 0.03.

Take G7C A16U G33U G35A: the self-cleavage worked out at 0.02.

With G7C C15A U20A, the self-cleavage came out at 0.02.

On to G7C G21A G29A, for which the self-cleavage was determined as 0.08.

In the case of G7U A11C G22C G27C, the self-cleavage was 0.02.

Regarding G7C G17U G29U, the self-cleavage is 0.08.

With G7C A11C G30A C31G G35U, the self-cleavage was 0.02.

Turning to G7C A26C U28G G30A A39U, the self-cleavage amounted to 0.19.

With G7C G30U C37G A39C, the self-cleavage was 0.02.

Take G7C C8A C13A U43A: the self-cleavage was found to be 0.36.

For the variant G7C A25U U32G U34G A39C, the self-cleavage is 0.05.

In the case of G7C U9G U20G G21U, the self-cleavage was 0.06.

In the case of G7C C13G A25G, the self-cleavage was found to be 0.11.

As to G7C C8U U38A, the self-cleavage stood at 0.04.

As to G7C G21C G27A G30U G40A G44U, the self-cleavage came out at 0.02.

Turning to G7C A25C U38C, the self-cleavage was found to be 0.05.

Consider G7C U9A C10U G33C, for which the self-cleavage came out at 0.04.

With G7C C23G A41U, the self-cleavage was 0.1.

For G7C G17U U28C G29U, the self-cleavage was determined as 0.06.

For G7C A12U C15G G22C A39G C42U, the self-cleavage is 0.02.

G7C C13U C15U G19A G35U: the self-cleavage stood at 0.24.

As for G7C C8A G35C, the self-cleavage stood at 0.05.

In the case of G7C G22A U38G, the self-cleavage was 0.01.

For the variant G7C C15G G19A G22U G30A C31U, the self-cleavage came out at 0.04.

As for G7C G17A U28G G33A, the self-cleavage was 0.03.

On to G7C C10G A16G C18A A26U G30U, for which the self-cleavage came to 0.01.

For G7C C8U G19C U32C C42A, the self-cleavage was 0.09.

G7C C13U U32G G44A: the self-cleavage stood at 0.1.

Turning to G7C C8U U9A C23U G33A, the self-cleavage worked out at 0.11.

For the variant G7C A16U G19A C45U, the self-cleavage is 0.02.

With G7U A11G A14U, the self-cleavage is 0.03.

For G7C A24C G44A, the self-cleavage worked out at 0.04.

Turning to G7C C8A C18G A25G, the self-cleavage worked out at 0.01.

With G7C A25U U34A C45U, the self-cleavage is 0.12.

Consider G7C C15A C23U, for which the self-cleavage turned out to be 0.05.

For the variant G7C G22U G27A C42A, the self-cleavage worked out at 0.13.

Consider G7C C10U A11G C37A C45G, for which the self-cleavage was found to be 0.

On to G7C C13U G22U U38G A39U C42A, for which the self-cleavage worked out at 0.06.

G7C U28G G30A G40U C42A: the self-cleavage was determined as 0.13.

Take G7C G19C G21A C23G C42U G44U: the self-cleavage is 0.07.

In the case of G7C A14U U20C A39G G40A, the self-cleavage stood at 0.05.

For G7C C15U U34G G44U C45U, the self-cleavage turned out to be 0.1.

Turning to G7C G21C C31U G35C U43C, the self-cleavage was 0.02.

On to G7C G17C C37U, for which the self-cleavage is 0.04.

Consider G7C A11G U20A C23U A41C, for which the self-cleavage stood at 0.02.

G7C G21U A39U: the self-cleavage amounted to 0.07.

Consider G7C A26G G30A C37G U38A G40C, for which the self-cleavage was determined as 0.17.

For G7C U9A G30U G33C G36U G40A, the self-cleavage came to 0.03.

For the variant G7C C10A U20C G21U, the self-cleavage was found to be 0.01.

For G7U A11U G21C, the self-cleavage was 0.04.

G7C C18G G29A G40U: the self-cleavage worked out at 0.1.

For the variant G7C C10G A12C G35U A39C, the self-cleavage is 0.03.

Turning to G7C A14U A16C C46U, the self-cleavage was 0.04.

As for G7C C13G A14C G21C, the self-cleavage is 0.1.

Consider G7C A12G U28G, for which the self-cleavage came to 0.

As to G7C U9A C23G, the self-cleavage stood at 0.08.

Take G7C U34C C42G: the self-cleavage was found to be 0.06.

In the case of G7C A26U C42A, the self-cleavage worked out at 0.08.

Take G7C A11U A12C A26G G44U: the self-cleavage was found to be 0.01.

For the variant G7C C13G C18G G33U, the self-cleavage turned out to be 0.03.

G7C A16U G35A: the self-cleavage came to 0.11.

For G7U A11C C18U G19U, the self-cleavage came out at 0.01.

With G7C A11G C18G C37A, the self-cleavage was found to be 0.01.

In the case of G7C A41C U43C, the self-cleavage amounted to 0.07.

As to G7C C10A A14G G17U U20G G22U, the self-cleavage came out at 0.02.

Regarding G7C G17C C18U, the self-cleavage is 0.05.

As for G7C A11G C15G G17U A25U, the self-cleavage came to 0.01.

On to G7C C13U A26C G40C, for which the self-cleavage was found to be 0.08.

Consider G7C G22U C46A, for which the self-cleavage worked out at 0.08.

For G7C A11U A25C, the self-cleavage was found to be 0.03.

In the case of G7C A24C G30A, the self-cleavage is 0.09.

For G7C A39G C42U, the self-cleavage came out at 0.01.

As for G7C G30U C31G, the self-cleavage was 0.12.

As to G7C A25C C37U G40C, the self-cleavage was determined as 0.03.

As to G7C C8G A11C A26G A41U C46G, the self-cleavage is 0.02.

Consider G7C C13U G30A G40U, for which the self-cleavage was 0.25.

As for G7C C8G G19U C23G G35A, the self-cleavage turned out to be 0.33.

As to G7C A16U G30C A41U, the self-cleavage turned out to be 0.17.

In the case of G7C U9A U34G G44A, the self-cleavage came to 0.01.

In the case of G7C C15A G29U, the self-cleavage came to 0.1.

Turning to G7C A26G G40A C45U, the self-cleavage came to 0.05.

For G7C C15A C18A C23G, the self-cleavage was 0.04.

With G7C C15G C23U A25U, the self-cleavage was 0.05.

As to G7C C18A G27C G30C, the self-cleavage stood at 0.04.

Regarding G7C A26U A39G, the self-cleavage turned out to be 0.06.

With G7C C10A A12U G17A, the self-cleavage stood at 0.03.

Take G7C U9C C18A: the self-cleavage came out at 0.03.

For G7C C23U C45U, the self-cleavage is 0.28.

Consider G7C C10U G36A, for which the self-cleavage turned out to be 0.06.

With G7C G17U A26C, the self-cleavage came out at 0.39.

Regarding G7C U28A G35A G36U, the self-cleavage is 0.01.

In the case of G7C A12G C23U A25G C31A G36A, the self-cleavage worked out at 0.01.

Consider G7C G27A C31U, for which the self-cleavage was 0.09.

Take G7C U34C G40U: the self-cleavage is 0.04.

Take G7C U9C U20A G27U: the self-cleavage stood at 0.03.

Regarding G7A U32A U43C, the self-cleavage was found to be 0.57.

For G7C G21U U28C U32A G33A, the self-cleavage is 0.05.

For G7A U43G C45A, the self-cleavage was determined as 0.09.

With G7C C10A A11C C15G, the self-cleavage amounted to 0.01.

For G7C A12U G29A, the self-cleavage came to 0.04.

For G7C C8U U9A C42U, the self-cleavage was 0.06.

As to G7C A11C U32A, the self-cleavage was 0.01.

As for G7C G33A G36U U38C, the self-cleavage came to 0.07.

Take G7A U34A A41U: the self-cleavage was found to be 0.17.

Take G7C C13G G21A C31U G40U C42G: the self-cleavage came out at 0.47.

On to G7C C15G U38A, for which the self-cleavage was found to be 0.01.

As to G7C A12C G33C, the self-cleavage turned out to be 0.06.

In the case of G7U A11C U28G U32G C42A, the self-cleavage is 0.01.

Take G7C G19A U20C U32A: the self-cleavage turned out to be 0.01.

Take G7C C8A A16G: the self-cleavage was found to be 0.14.

As to G7C G19U U32A A39C, the self-cleavage amounted to 0.09.

With G7C C18U G22C C46A, the self-cleavage was 0.03.

As to G7C U9C G22C G29A, the self-cleavage was found to be 0.

Regarding G7C U32G C46U, the self-cleavage worked out at 0.04.

For the variant G7C G27U G29C C31U, the self-cleavage was 0.08.

Take G7U A11C C13G A24U A26G G33U: the self-cleavage turned out to be 0.01.

Take G7U A11U G44A: the self-cleavage was 0.04.

With G7C U9G U20C U34C, the self-cleavage came to 0.17.

For the variant G7C A14G A16C C37A A39C C46A, the self-cleavage was 0.01.

Turning to G7C G19A C23A U34A, the self-cleavage turned out to be 0.01.

As for G7C C18U G40U, the self-cleavage came to 0.19.

In the case of G7C C42G C46U, the self-cleavage worked out at 0.04.

With G7C C18A C37G, the self-cleavage is 0.03.

For the variant G7C C8A A16U G40U, the self-cleavage is 0.45.

As for G7C G21C G27A G30U A39G C42A, the self-cleavage was determined as 0.01.

Consider G7C C8G G22U, for which the self-cleavage was 0.39.

Consider G7C G36A A41G, for which the self-cleavage is 0.04.

As for G7C G35A C42U, the self-cleavage amounted to 0.06.

Consider G7C A12G A16C C42A, for which the self-cleavage was found to be 0.01.

For G7C A24G A26G G27U G30A G35A C46A, the self-cleavage came to 0.08.

Regarding G7C C15U A26U G44C, the self-cleavage was 0.09.

As to G7C C15U A26G U34G, the self-cleavage amounted to 0.01.

Take G7C A11C G22A A25U G27A G35U G36C A39U: the self-cleavage is 0.

Take G7C G22C G33A A41U: the self-cleavage worked out at 0.19.

On to G7C A14U A39G G40A, for which the self-cleavage came to 0.07.

Take G7C C8U G33A C42A C46A: the self-cleavage was 0.28.

As to G7C C13U G29A G36U A41U, the self-cleavage was 0.16.

As to G7C A16C U32G G33U A39C, the self-cleavage came out at 0.01.

G7C C23A U32G A41G: the self-cleavage is 0.07.

Take G7C C8U C23U G29C: the self-cleavage is 0.11.

As to G7C A11G C31A C42G, the self-cleavage came to 0.01.

With G7C C10A G21U A24G U28A C46A, the self-cleavage stood at 0.01.

As to G7C C15U G21U C31U, the self-cleavage turned out to be 0.04.

With G7U A11G G27U G29A, the self-cleavage is 0.02.

Turning to G7C G29U C37A A39U G44U, the self-cleavage came to 0.09.

On to G7C C8U A12C A26C, for which the self-cleavage came to 0.02.

G7C A12U U38A: the self-cleavage was found to be 0.09.

On to G7C C8G U9C C18A, for which the self-cleavage was 0.06.

Take G7C G33U G36U C46U: the self-cleavage was determined as 0.24.

On to G7C U20G U32A, for which the self-cleavage worked out at 0.23.

On to G7C C23A G27C U32G, for which the self-cleavage was determined as 0.02.

For G7C C18U G22A U28A, the self-cleavage stood at 0.06.

For the variant G7C A11G G27U A41U, the self-cleavage was 0.01.

For the variant G7C A11U A24G, the self-cleavage amounted to 0.03.
